{"source": "PubChem BioAssay (Tox21)", "note": "The inconclusive results got no clear call from the source; some entries with a clear call stand among them for comparison. A potency beside an inconclusive call is a rough fit, not a confirmed value. Activity calls are given as the source filed them. Calls come from the whole dose curve; as a rule, active = well fitted curve in the direction sought with a large enough effect in the repeat runs; inconclusive = weak or mixed curves; inactive = no such curve, though single readings can be large; an effect the other way counts as inactive or inconclusive."}
{"target": "Voltage-gated inwardly rectifying potassium channel KCNH2 (Homo sapiens) (UniProt Q12809)", "sequence (Q12809 whole entry, looked up)": "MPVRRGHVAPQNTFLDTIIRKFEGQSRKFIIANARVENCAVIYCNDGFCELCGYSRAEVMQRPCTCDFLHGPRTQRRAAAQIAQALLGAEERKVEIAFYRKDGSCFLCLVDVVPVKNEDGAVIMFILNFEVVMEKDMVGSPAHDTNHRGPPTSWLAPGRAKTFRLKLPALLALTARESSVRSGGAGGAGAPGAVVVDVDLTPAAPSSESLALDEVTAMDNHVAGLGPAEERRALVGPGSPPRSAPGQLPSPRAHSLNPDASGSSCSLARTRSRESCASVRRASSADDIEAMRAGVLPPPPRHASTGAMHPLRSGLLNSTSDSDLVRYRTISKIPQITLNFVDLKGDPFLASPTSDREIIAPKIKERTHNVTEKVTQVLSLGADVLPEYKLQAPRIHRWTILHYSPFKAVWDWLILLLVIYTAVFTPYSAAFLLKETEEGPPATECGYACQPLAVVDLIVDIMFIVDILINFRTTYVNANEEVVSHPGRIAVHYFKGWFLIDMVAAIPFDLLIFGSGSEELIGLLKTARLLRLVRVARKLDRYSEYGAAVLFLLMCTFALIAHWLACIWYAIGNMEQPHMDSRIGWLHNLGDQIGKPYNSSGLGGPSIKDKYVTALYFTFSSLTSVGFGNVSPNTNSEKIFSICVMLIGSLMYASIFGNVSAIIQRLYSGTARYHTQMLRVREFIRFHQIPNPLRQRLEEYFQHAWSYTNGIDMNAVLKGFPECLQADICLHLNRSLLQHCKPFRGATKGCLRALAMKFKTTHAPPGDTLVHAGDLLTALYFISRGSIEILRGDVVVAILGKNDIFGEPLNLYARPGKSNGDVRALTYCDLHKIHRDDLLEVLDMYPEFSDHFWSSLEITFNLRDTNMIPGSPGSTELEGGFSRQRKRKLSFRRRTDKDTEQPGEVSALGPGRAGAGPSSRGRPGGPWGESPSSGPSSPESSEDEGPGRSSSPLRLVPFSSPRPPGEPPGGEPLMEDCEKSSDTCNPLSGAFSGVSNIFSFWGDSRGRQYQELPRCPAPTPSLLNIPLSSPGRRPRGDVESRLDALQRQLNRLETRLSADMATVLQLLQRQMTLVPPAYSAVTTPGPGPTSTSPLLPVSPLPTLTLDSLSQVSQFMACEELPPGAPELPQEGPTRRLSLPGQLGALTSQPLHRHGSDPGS", "assay": "Human Ether-a-go-go-Related Gene (hERG) channel small molecule antagonists: fluorescence cell-based qHTS assay (AID 1671200); note: potency is the fitted concentration of half-maximal effect; tags give direction and shape of the fitted curve;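 for activity change, negative = inhibition: hERG-expressing U2OS cells given a thallium stimulus after FluxOR II dye loading; % is set by controls: 0 for no effect and ±100 for the full control effect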", "settings": "hERG-U2OS cells, FluxOR thallium flux fluorescence; series mostly up to 76.8 µM; activity change, negative = inhibition: at the top concentration", "outline": "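Fluorescence at 540 nm emission (480 nm excitation) was recorded kinetically for 2 min at 1-second intervals once the thallium-containing stimulus reached cells previously loaded with FluxOR II dye.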"}
{"compound": "CCOC(=O)NNc1ccc(N(CC)CC(C)O)nn1", "note": "(stereo not drawn); note: nearly all actives have a fitted effect of over 50% in size", "Potency": "inconclusive: 23.9 µM [inhibitor, partial curve]"}
{"compound": "O=C(CCS)OCC(COC(=O)CCS)(COC(=O)CCS)COC(=O)CCS", "Potency": "active: 38.9 µM"}
{"compound": "Cc1c(C(N)=O)cc([N+](=O)[O-])cc1[N+](=O)[O-]", "Potency": "inactive"}
{"compound": "CCOC(=O)c1ccc(O)c(O)c1", "activity change, negative = inhibition": "inactive: 4.36% [at 35.3 µM]"}
{"compound": "COc1cc(C(=O)NS(=O)(=O)c2ccccc2C)ccc1Cc1cn(C)c2ccc(NC(=O)OC3CCCC3)cc12", "activity change, negative = inhibition": "inactive: -2.94% [at 35.3 µM]"}
{"target": "Cytochrome P450 3A4 (Homo sapiens) (UniProt P08684)", "sequence (P08684 whole entry, looked up)": "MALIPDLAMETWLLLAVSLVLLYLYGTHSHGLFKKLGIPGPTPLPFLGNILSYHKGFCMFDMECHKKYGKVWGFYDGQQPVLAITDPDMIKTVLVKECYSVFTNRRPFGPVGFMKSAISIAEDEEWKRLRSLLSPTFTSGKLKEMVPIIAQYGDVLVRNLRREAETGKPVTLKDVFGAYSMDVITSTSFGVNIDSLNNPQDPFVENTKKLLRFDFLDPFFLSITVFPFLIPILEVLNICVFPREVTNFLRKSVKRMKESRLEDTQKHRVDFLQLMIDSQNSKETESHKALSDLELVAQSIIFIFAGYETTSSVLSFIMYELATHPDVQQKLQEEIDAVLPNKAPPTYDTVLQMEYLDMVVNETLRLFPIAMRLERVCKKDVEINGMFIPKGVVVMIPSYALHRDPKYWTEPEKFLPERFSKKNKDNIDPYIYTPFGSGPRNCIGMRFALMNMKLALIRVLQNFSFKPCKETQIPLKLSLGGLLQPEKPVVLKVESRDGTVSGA", "assay": "Cytochrome P450 Family 3 Subfamily A Member 4 (CYP3A4) small molecule antagonists: luciferase reporter qHTS assay (AID 1671201); note: potency is the fitted concentration of half-maximal effect; tags give direction and shape of the fitted curve", "settings": "P450-Glo CYP3A4 enzyme, luciferin luminescence, 1 h; series mostly up to 115 µM; activity change, negative = inhibition: at the top concentration", "outline": "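qHTS, 1536-well. CYP3A4 + proluciferin substrate, cpd 10 min RT → NADPH regen 1 h RT → detection reagent 20 min → luminescence (RLU). Ketoconazole positive control.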"}
{"compound": "O=C(CCS)OCC(COC(=O)CCS)(COC(=O)CCS)COC(=O)CCS", "Potency": "active: 5.64 µM"}
{"compound": "CCCCCCCC/C=C\\CCCCCCCC(=O)OCC", "Potency": "inconclusive: 89.4 µM [inhibitor]"}
{"compound": "C=C(C)C(=O)OCCCCCCCCCCCCC", "Potency": "active: 55.7 µM"}
